These results are taken from the supplement of paper PMC11417369.

The list shows a part of the results.

In this assay the test system is PfSIP2 AP2 domain 1 (GST-tagged). Nature of the assay: gcPBM binding intensity (ln(normalized median fluorescence intensity)); higher = stronger DNA binding. An outline of the steps:
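Probes on an Agilent 4 × 180k array were primer-extended, double-stranded and 36 bp long, taken from intergenic genomic regions, with negative controls added. GST-tagged P. falciparum DNA-binding domains from E. coli, about 25 μg on average, were applied to the array for 1 h in 1× PBS containing 1% milk, 0.2 mg/ml BSA, 0.5% salmon testes DNA and 0.03% Triton X-100. Binding intensity, obtained after Alexa488 anti-GST antibody detection and a 488 nm scan, is the highest Masliner-normalised natural-log median intensity across replicate spots of either probe orientation.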
On to “TATGAACACCCAAATACACACACTCAAAAAAAAAAA [CACACA_site5466]”, for which the “gcPBM binding intensity (ln)” value is 6.98.
In the case of “TCAGATCCATAGAAGGTGCAAATAACAAAAATACAA [GTGCAC_site9610]” it was 10.9; in that of “TAATTTTTCTTATATAGTACACAAAAAGAAAATTAC [XGTACX_site6393]”, 7.07; in that of “ATATATATATATATATGTACATATATTTGTAATGTC [XGTACX_site8074]”, 9.37.
For “TTTATTATGTAAGCATGTACATGATGTATATATTTA [XGTACX_site5021]”, the “gcPBM binding intensity (ln)” value worked out at 7.07.
Turning to “ATCTGTACAGTTTTTGCACACATATAAATAAAAAAA [CACACA_site9198]”, the “gcPBM binding intensity (ln)” value was 7.85.
For “TATTTACAAATAAAAAGTACATAAACTAATATCTTT [XGTACX_site2181]”, the “gcPBM binding intensity (ln)” value stood at 7.27.
For the sequence “TTGTTTGTAAACAGATGTACATATAAAAATATATAT [XGTACX_site3370]”, the “gcPBM binding intensity (ln)” value was 7.31.
For “TATATTAGAAAGGATACACACATATATAAATATCTA [CACACA_site6411]”, the “gcPBM binding intensity (ln)” value came out at 6.74.
In the case of “TAAATACTTATATGTACACACATATAGATATATATT [CACACA_site2553]” it was 7.01; in that of “ATATAAATAAATGTATGTACATATATTTATATGCAT [XGTACX_site4185]”, 7.1.
In the case of “CACAGACACGGACACACACACACACCGATATATATA [CACACA_site4353]” it was 7.79.
Consider “ATTTTTTAAAATATTTGTACATATATAATGCATATA [XGTACX_site7026]”, for which the “gcPBM binding intensity (ln)” value stood at 7.14.
For “ATATAATCTGAGTGCACACAAATAAATAAACATACA [CACACA_site422]”, the “gcPBM binding intensity (ln)” value was determined as 10.4.
With “TAAAAGGATGCATATACACACATATAGATTTATATA [CACACA_site7336]”, the “gcPBM binding intensity (ln)” value was found to be 6.98.
In the case of “TTTTTTTTGTATTTTTCACACACACCGAAGTAAACA [CACACA_site8575]”, the “gcPBM binding intensity (ln)” value stood at 7.39.
In the case of “AGTTGCATACATTGAAGTACAGAACATTTATATATA [XGTACX_site240]” it was 7.02; in that of “TTTTTCCTTATTAATACACACATTCACCTTTTAAAT [CACACA_site479]”, 7.29.
“TTAAATTCGTCATTTTAAAATAATACAAAAGTTCAA [CACACA_negctrl_site19]”: the “gcPBM binding intensity (ln)” value turned out to be 6.81.
As for “TTACGATTTAAAATGGGTACATATATATGAAAAAAA [XGTACX_site545]”, the “gcPBM binding intensity (ln)” value is 7.15.
In the case of “CTTATGTGCATACCTACACACTTACCTATATTTATA [CACACA_site7411]” it was 7.99; in that of “TCAAAGTAAAACAGGACATGCACAGAACATCCTGCC [TGCATGCA_site2]”, 7.58; in that of “AAAAAAAAAACATACACACACATATAGATTTATATG [CACACA_site6847]”, 6.89.
Take “TAAAGAAAAATATAAAGTACAAAAATAAAAAAAATA [XGTACX_site8226]”: the “gcPBM binding intensity (ln)” value was 6.93.
Turning to “TACACAAAGTTACATACACACTAATATTTACACCAT [CACACA_site6602]”, the “gcPBM binding intensity (ln)” value turned out to be 6.91.
